Sequences and labels used below:
B1: OR4K15 (parent)
chain: GUUAACGGUCAUAGGCCAUGGAAACUAGGAGCACCAUUUCGCUGCCAGUGAAGAAAUGAACAAAGAAAAUCUGGGCCAGGCAGGCAUCAAAAGAAAUAGUCUUGCGCUCAACCAGAAAGUCUGUAAUCAUUUUAAGGGUA

The source gives no read counts; variants with many changes may rest on few reads.

The data set covers variants of B1. Put plainly: self-cleavage, relative activity (ratio to wild type); higher = more cleavage; in vitro, sequencing; the parent is a self-cleaving ribozyme.
GUUAACGGCCAUAGGCCAUGGAGACUAGGAGCACCGUUUCGCUGCCAGUGAAGAAAUGAACAAAGAAAAUCUGGGCCAGGCAGGCAUCAAAAGAAAUAGUCUUGCGCUCAACCAGAAAGUCUGUAAUCAUUUUAAGGGUA [U9C A23G A36G]: the self-cleavage amounted to 0.62.

As to GUUAACGGCCAUAGGCCAUGGAGACUAGGAGCACCAUUUCGCUGCCAGUGAAGAAAUGAACAAGGAAAAUCUGGGCCAGGCAGGCAUCAAAAGAAAUAGUCUUGCGCUCAACCAGAAAGUCUGUAAUCAUUUUAAGGGUA [U9C A23G A64G], the self-cleavage came to 1.09.

GUUAACGGCCAUAGGCCAUGGGAACCAGGAGCACCAUUUCGCUGCCAGUGAAGAAAUGAACAAAGAAAAUCAGGGCCAGGCAGGCAUCAAAAGAAAUAGUCUUGCGCUCAACCAGAAAGUCUGUAAUCAUUUAAAGGGUA [U9C A22G U26C U72A U133A]: the self-cleavage came out at 0.43.

As for GUUAACGGCCAUAGGCCAUGGGAACUAGGAGCACCAUUUCGCUGCCAGUGAUGAAAUGAACAAAGAAAAUCUGGGCCAGGCAGGCAUCAAAAGAAAUAGUCUUGCGCCCAACCAGAAAGUUUGUAAUCAUUUUAAGGGUA [U9C A22G A52U U108C C121U], the self-cleavage worked out at 0.02.

With GUUAACGGCCAUAGGCCAUGGAGACUAGGAGCACCAUUUCGCUGCCAGUGAAGAAAUGAACAAAGAAAAUCUGGGCCAGGCAGGCAUCAAAAGUAAUAGUCUUGCGCUCAACCAGAAAGUCUGUAAUCAUUUUAAGGGUA [U9C A23G A94U], the self-cleavage was found to be 1.74.

Take GUUAACGGCCAUAGGCCAUGGGAGCUAGGAGCACCAUUUCGCUGCCAGUGAAGAAAUGAACAAAGAAAAUCUGGGCCAGGCAGGCAUCAAAGGAAAUAGUCUUGCGCUCAACCAGAAAGUCUGUAAUCACUUUAAGGGUA [U9C A22G A24G A92G U130C]: the self-cleavage was 1.21.

GUUAACGGCCAUAGGCCAUGGGAACUAGGAGCACCGUUUCGCUGCCAGUGAAGGAAUGAACAAAGAAAAUCUGGGCCAGGCAGGCAUCAAAAGAAAUAGUCUUGCGCUCAGCCAGAAAGUCUGUAAUCAUUUUAAGGGUA [U9C A22G A36G A54G A111G]: the self-cleavage was determined as 0.08.

GUUAACGGCCAUAGGCCAUGGGAACUAGGAGCACCAUUUCGCUGCCAGUGAAGAAAUGAACAAAGAAAAUCUGGGCCAGGCAGGCAUCAAAAGAAAUAGUCUUGCGCUCAACCAGAAAGUCUGUAAUCAUUGUAAGGGUA [U9C A22G U132G]: the self-cleavage amounted to 1.87.

As for GUUAACGGCCAUAGGCCAUGGGAACUAGGAGCACCAUUUCGCUGCCAGUGAAGAAAUGAACAAAGAAAAUCUGGGCCAGGCAGGCAUCAAAAGGAAUAGUCUUGCGCUCAACCAGAAAGUCUGUAAUCAUUUUAAGGGUA [U9C A22G A94G], the self-cleavage is 1.48.

Turning to GUUAACGGCCAUAGGCCAUGGAGACUAGGAGCACCAUUUCGCUGCCAGUGAAGAAAUGAGCAAAGAAAAUCUGGGCCAGGCAGGCAUCAAAAGAAAAAGUCUUGCGCUCAACCAGAAAGUCUGUAAUCAUUUUAAGGGUA [U9C A23G A60G U97A], the self-cleavage was determined as 1.55.

As to GUUAACGGCCAUAGGCCAUGGGAACUAGGAGCACCAUUUCGCUGCCGGUGAAGAAAUGAACAAAGAAAAUCUGGGCCAGGCAGGCAUCAAAAGAAAUAGUCUUGCGCUCAACCAGAAAGUCUGUAAUCAUUCUAAGGGUA [U9C A22G A47G U132C], the self-cleavage was 0.86.

GUUAACGGCCAUAGGCCAUGGAGACUAGGAGCACCAUUUCGCUGCCAGUGAAGAAAUGAACAAAGAAAAUCUGGGCCAGGCAGGCGUCAAGAGAAAUAGUCUUGCGCUCAACCAGAAAGUCUGUAAUCAUUUUAAGGGUA [U9C A23G A86G A91G]: the self-cleavage was 0.11.

Consider GUUAACGGCCAUAGGCCUUGGAAACUAGGAGCACCAUUUCGCUGCCAGUGAAGAAAUGUACAAAGAAAAUCUGGGCCAGGCAGGCAUCAAAAGAGAUAGUCUUGCGCUCAACCAGAAAGUCUGUAAUCAUUUUAAGGGUA [U9C A18U A59U A95G], for which the self-cleavage is 1.7.

As for GUUAACGGCCAUAGGCCAUGGAGACUAGGAGCACCAUUUCGCUGCCAGUGAAGAAAUGAGCAUAGAAGAUCUGGGCCAGGCAGGCAUCAAAAGAAAUAGUCUUGCGCUCAACCAGAAAGUCUGUAACCAUUUUAAGGGUA [U9C A23G A60G A63U A68G U127C], the self-cleavage came to 0.22.

As to GUUAACGGCCAUAGGCCAUGGGAACUAGGAGCACCAUUUCGCUGCCAGUGAAGAAAUGAACAAAGAAAAUCUGGGCCAGGCAGGCAUCGAAAGAAAUAGUCUUGCGCUCAACCAGAAAGUCUGUAAUCAUUUUAAGGGUA [U9C A22G A89G], the self-cleavage is 1.7.

As to GUUAACGGCCAUAGGCCAUGGAGACUAGGAGCACCAUUACGCUGCCAGUGAAGAAAUGAACAAAGAAAAUCUGGGCCAGGCAGGCAUCAAAAGAAAUAGUCCUGCGCUCAACCAGAAAGUCUGUAAUCAUUUUAAGGGUA [U9C A23G U39A U102C], the self-cleavage came out at 1.13.

With GUUAACGGCCAUAGGCCAUGGGAACUAGGAGCACCAUUUCGCUGCCAGUGAAGAAAUGAACAAAGAAAAUCUGGGCCAGGCAGGCAUCAAAAGAAAUAGUCUUGCGCUCGGCCAGAAAGUCUGUAAUCAUUUUAAGAGUA [U9C A22G A110G A111G G137A], the self-cleavage was determined as 0.05.

Consider GUUAACGGCCAUAGGCCAUGGGAACUAGGAGCACCAUUUCGCUGCCAGCGAAGAAAUGUACAAAGAAAAUCUGGGCCAGGCAGGCGUCAAAAGGAAUAGUCUUGCGCUCAACCAGAAAGUCUGUAAUCAUUUUAAGGGUA [U9C A22G U49C A59U A86G A94G], for which the self-cleavage amounted to 2.24.

For GUUAACGGCCAUAGGCCAUGGGAACUAGGAGCACCAUUUCGCUGCCAGUGAAGAAAUGAACAAAGAAAAUUUGGGCCAGGCAGGCAUCAAAAGAAAUAGUCUUACGCUCAACCAGAAAGUCCGUAAUCACUUUAAGGGUA [U9C A22G C71U G104A U122C U130C], the self-cleavage stood at 0.02.

GUUAACGGCCAUAGGCCAUGGAGACUAGGGGCACCAUUUCGCAGCCAGUGAAGAAAUGAACAAAGUAAAUCUGGGCCAGGCAGGCAUCAAAAGAAAUAGUCUUGCGCUCAACCAGAAAGUCUGUAAUCAUUUUAAGGGUA [U9C A23G A30G U43A A66U]: the self-cleavage is 1.17.

For GUUAACGGCCAUAGGCCAUGGGAACUAGGAGCACCAUUUCGCUGCCAGUGAAGGAAUGAACAGAGGAAAUCUGGGCCAGGCAGGCAUCAAAAGAAAUAGUCUUGCGCUCUACCAGAAAGUCUGUAAUCAUUUUAAGGGUA [U9C A22G A54G A63G A66G A110U], the self-cleavage was found to be 1.09.
